In the supplement of paper PMC4967469:
IC50 is the fitted dose that halves viability relative to control wells, and lower means more sensitive; where the fit passes the top or lowest dose, that dose stands as a limit. The AUC spans the tested range (256-fold, ending at the top dose) of the same fit: 1 means no effect, lower means more sensitive. For some assays here: Any top dose called inferred was derived from the fitted curves, not read from the paper. For some assays here: Where an entry number is given, a second screen of the drug exists; the two often differ.

Tests used:
Assay in all cases: Viability of human cancer cell lines after 72 h of drug (GDSC screen)
AS601245 = compound: N#CC(c1ccnc(NCCc2cccnc2)n1)c1nc2ccccc2s1 [AS601245]; details: top dose 8 µM; top dose inferred
Method: (§1)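 Human cancer cell lines in 384-well plates, medium with 10% serum, drug for 72 h over a 256-fold dose range (nine 2-fold or five 4-fold steps up to the top dose). Adherent lines were fixed and stained with the nucleic acid dye Syto60, suspension lines read with resazurin; signal relative to control wells, capped at 0 and 100%. One two-parameter sigmoid per drug and line, fitted in a mixed model over all curves with the slope shared within a line.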

AZ628 = compound: Cc1ccc(NC(=O)c2cccc(C(C)(C)C#N)c2)cc1Nc1ccc2ncn(C)c(=O)c2c1 [AZ628]; details: top dose 4 µM; top dose inferred
Method: as §1

YM201636 = compound: Nc1ccc(C(=O)Nc2cccc(-c3nc(N4CCOCC4)c4oc5ncccc5c4n3)c2)cn1 [YM201636]; details: top dose 5.12 µM; top dose inferred
Method: as §1

EX-527 = compound: NC(=O)C1CCCc2c1[nH]c1ccc(Cl)cc21 [EX-527]; details: top dose 20 µM
Method: as §1

AZD6244 = compound: Cn1cnc2c(F)c(Nc3ccc(Br)cc3Cl)c(C(=O)NOCCO)cc21 [AZD6244]
Method: as §1

PD-0332991 = compound: CC(=O)c1c(C)c2cnc(Nc3ccc(N4CCNCC4)cn3)nc2n(C2CCCC2)c1=O [PD-0332991]
Method: as §1

ZM-447439 = compound: COc1cc2c(Nc3ccc(NC(=O)c4ccccc4)cc3)ncnc2cc1OCCCN1CCOCC1 [ZM-447439]; details: top dose inferred
Method: as §1

[1] = top dose 4 µM, screen: GDSC drug entry 1498, top dose inferred

## MY-M12 (leukaemia, suspension)
AS601245
  AUC: 0.763
  IC50: 3.25 µM
AZ628
  AUC: 0.548
  IC50: 0.344 µM
YM201636
  AUC: 0.695
  IC50: 1.23 µM
EX-527
  AUC: 0.976
  IC50: > 20 µM

## NB17 (neuroblastoma, adherent)
AZ628
  AUC: 0.982
  IC50: > 4 µM
YM201636
  AUC: 0.854
  IC50: 5.03 µM
AZD6244; [1]
  AUC: 0.981
  IC50: > 4 µM
EX-527
  AUC: 0.926
  IC50: > 20 µM

## NB69 (neuroblastoma, adherent)
AS601245
  AUC: 0.878
  IC50: 6.5 µM
AZ628
  AUC: 0.462
  IC50: 0.199 µM
YM201636
  AUC: 0.888
  IC50: 4.64 µM
EX-527
  AUC: 0.98
  IC50: > 20 µM

## NCI-H64 (small cell lung carcinoma, suspension)
AS601245
  AUC: 0.894
  IC50: 5.3 µM
AZ628
  AUC: 0.996
  IC50: > 4 µM
YM201636
  AUC: 0.858
  IC50: 2.6 µM
EX-527
  AUC: 0.994
  IC50: > 20 µM

## NCI-H128 (small cell lung carcinoma, suspension)
AZ628
  AUC: 0.829
  IC50: > 4 µM

## NK-92MI (lymphoid neoplasm, suspension)
AS601245
  AUC: 0.83
  IC50: 4.56 µM
AZ628
  AUC: 0.881
  IC50: 3.68 µM

## RL95-2 (endometrium, adherent)
AZ628
  AUC: 0.826
  IC50: 2.38 µM
YM201636
  AUC: 0.886
  IC50: > 5.12 µM
AZD6244; [1]
  AUC: 0.623
  IC50: 0.544 µM
EX-527
  AUC: 0.981
  IC50: > 20 µM

## SKM-1 (haematopoietic neoplasm, suspension)
AZ628
  AUC: 0.922
  IC50: > 4 µM
AZD6244; [1]
  AUC: 0.169
  IC50: 0.0215 µM

## TE-441-T (rhabdomyosarcoma, adherent)
AS601245
  AUC: 0.893
  IC50: > 8 µM
AZ628
  AUC: 0.82
  IC50: 2.17 µM
YM201636
  AUC: 0.911
  IC50: > 5.12 µM

## U-698-M (B-cell leukaemia, suspension, top dose 4 µM)
PD-0332991
  AUC: 0.948
  IC50: > 4 µM
AZD6244; screen: GDSC drug entry 1062
  AUC: 0.987
  IC50: > 4 µM
ZM-447439
  AUC: 0.977
  IC50: > 4 µM

## UACC-62 (melanoma, adherent, top dose 4 µM)
PD-0332991
  AUC: 0.963
  IC50: > 4 µM
AZD6244; screen: GDSC drug entry 1062
  AUC: 0.979
  IC50: > 4 µM
ZM-447439
  AUC: 0.935
  IC50: > 4 µM

## UACC-257 (melanoma, adherent, top dose 4 µM)
PD-0332991
  AUC: 0.92
  IC50: > 4 µM
AZD6244; screen: GDSC drug entry 1062
  AUC: 0.539
  IC50: 0.328 µM
ZM-447439
  AUC: 0.963
  IC50: > 4 µM

## VA-ES-BJ (soft tissue, adherent, top dose 4 µM)
PD-0332991
  AUC: 0.635
  IC50: 0.604 µM
AZD6244; screen: GDSC drug entry 1062
  AUC: 0.905
  IC50: > 4 µM
ZM-447439
  AUC: 0.846
  IC50: 3.18 µM

## VAL (B-cell lymphoma, suspension, top dose 4 µM)
PD-0332991
  AUC: 0.934
  IC50: > 4 µM
AZD6244; screen: GDSC drug entry 1062
  AUC: 0.986
  IC50: > 4 µM
ZM-447439
  AUC: 0.884
  IC50: > 4 µM

## VCaP (prostate, adherent, top dose 4 µM)
PD-0332991
  AUC: 0.917
  IC50: > 4 µM
AZD6244; screen: GDSC drug entry 1062
  AUC: 0.987
  IC50: > 4 µM
ZM-447439
  AUC: 0.97
  IC50: > 4 µM

## VM-CUB-1 (bladder, adherent, top dose 2 µM)
PD-0332991
  AUC: 0.899
  IC50: > 2 µM
AZD6244; screen: GDSC drug entry 1062
  AUC: 0.867
  IC50: 1.69 µM
ZM-447439
  AUC: 0.885
  IC50: > 2 µM

## VMRC-LCD (lung adenocarcinoma, adherent, top dose 4 µM)
PD-0332991
  AUC: 0.951
  IC50: > 4 µM
AZD6244; screen: GDSC drug entry 1062
  AUC: 0.993
  IC50: > 4 µM
ZM-447439
  AUC: 0.897
  IC50: 3.52 µM

## VMRC-RCZ (kidney, adherent, top dose 4 µM)
PD-0332991
  AUC: 0.745
  IC50: 1.44 µM
AZD6244; screen: GDSC drug entry 1062
  AUC: 0.928
  IC50: > 4 µM
ZM-447439
  AUC: 0.982
  IC50: > 4 µM

## WIL2-NS (lymphoid neoplasm, suspension, top dose 4 µM)
PD-0332991
  AUC: 0.99
  IC50: > 4 µM
AZD6244; screen: GDSC drug entry 1062
  AUC: 0.987
  IC50: > 4 µM
ZM-447439
  AUC: 0.992
  IC50: > 4 µM

## WM35 (melanoma, adherent, top dose 4 µM)
PD-0332991
  AUC: 0.79
  IC50: 1.8 µM
AZD6244; screen: GDSC drug entry 1062
  AUC: 0.583
  IC50: 0.423 µM
ZM-447439
  AUC: 0.851
  IC50: 3.11 µM

## WM793B (melanoma, adherent, top dose 4 µM)
PD-0332991
  AUC: 0.926
  IC50: > 4 µM
AZD6244; screen: GDSC drug entry 1062
  AUC: 0.851
  IC50: 3.58 µM
ZM-447439
  AUC: 0.884
  IC50: > 4 µM

## WM1552C (melanoma, adherent, top dose 4 µM)
PD-0332991
  AUC: 0.981
  IC50: > 4 µM
AZD6244; screen: GDSC drug entry 1062
  AUC: 0.91
  IC50: > 4 µM
ZM-447439
  AUC: 0.95
  IC50: > 4 µM

## WM-115 (melanoma, adherent, top dose 4 µM)
PD-0332991
  AUC: 0.916
  IC50: > 4 µM
AZD6244; screen: GDSC drug entry 1062
  AUC: 0.515
  IC50: 0.277 µM
ZM-447439
  AUC: 0.953
  IC50: > 4 µM

## WSU-DLCL2 (B-cell lymphoma, suspension, top dose 4 µM)
PD-0332991
  AUC: 0.958
  IC50: > 4 µM
AZD6244; screen: GDSC drug entry 1062
  AUC: 0.987
  IC50: > 4 µM
ZM-447439
  AUC: 0.959
  IC50: > 4 µM

## WSU-NHL (lymphoid neoplasm, suspension, top dose 4 µM)
PD-0332991
  AUC: 0.797
  IC50: 1.63 µM
AZD6244; screen: GDSC drug entry 1062
  AUC: 0.982
  IC50: > 4 µM
ZM-447439
  AUC: 0.806
  IC50: 1.75 µM

## YAPC (pancreas, adherent, top dose 4 µM)
PD-0332991
  AUC: 0.912
  IC50: > 4 µM
AZD6244; screen: GDSC drug entry 1062
  AUC: 0.954
  IC50: > 4 µM
ZM-447439
  AUC: 0.943
  IC50: > 4 µM

## YH-13 (glioma, adherent, top dose 4 µM)
PD-0332991
  AUC: 0.692
  IC50: 0.895 µM
AZD6244; screen: GDSC drug entry 1062
  AUC: 0.967
  IC50: > 4 µM
ZM-447439
  AUC: 0.884
  IC50: > 4 µM

## YKG-1 (glioma, adherent, top dose 4 µM)
PD-0332991
  AUC: 0.747
  IC50: 1.3 µM
AZD6244; screen: GDSC drug entry 1062
  AUC: 0.862
  IC50: 3.51 µM
ZM-447439
  AUC: 0.858
  IC50: 3.36 µM

## YT (lymphoid neoplasm, suspension, top dose 4 µM)
PD-0332991
  AUC: 0.901
  IC50: 3.8 µM
AZD6244; screen: GDSC drug entry 1062
  AUC: 0.968
  IC50: > 4 µM
ZM-447439
  AUC: 0.885
  IC50: 3.24 µM

## ZR-75-30 (breast, adherent, top dose 4 µM)
PD-0332991
  AUC: 0.983
  IC50: > 4 µM
AZD6244; screen: GDSC drug entry 1062
  AUC: 0.983
  IC50: > 4 µM
ZM-447439
  AUC: 0.983
  IC50: > 4 µM

## huH-1 (liver, adherent, top dose 4 µM)
PD-0332991
  AUC: 0.692
  IC50: 0.991 µM
AZD6244; screen: GDSC drug entry 1062
  AUC: 0.943
  IC50: > 4 µM
ZM-447439
  AUC: 0.92
  IC50: > 4 µM

## no-11 (glioma, adherent, top dose 4 µM)
PD-0332991
  AUC: 0.973
  IC50: > 4 µM
AZD6244; screen: GDSC drug entry 1062
  AUC: 0.945
  IC50: > 4 µM
ZM-447439
  AUC: 0.914
  IC50: > 4 µM
